According to PubChem BioAssay AID1508642 (National Center for Advancing Translational Sciences (NCATS), 2021):
About 200 (0.47%) of roughly 43,000 compounds were called active. Inconclusive results (about 12%) are left out. Calls come from the whole dose curve; as a rule, active = well fitted cell-killing curve with a large enough effect; inconclusive = small, poorly fitted or top-dose-only effect, or effect the other way; inactive = flat fitted curve, though single readings scatter. The list shows a part of the results.

Experiment: Cell viability qHTS assay in S16 Pmp22-F2sN cells; note: nearly all actives have a fitted effect of over 65% in size
Settings: S16 Pmp22-F2sN Schwann cells viability, CellTiter-Glo, 24 h; series mostly up to 57.5 µM; activity change, negative = cytotoxicity: at the top concentration
Summary of the method: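 Used to flag compounds lowering reporter output through toxicity, this quantitative HTS measures ATP-based CellTiter-Glo luminescence in S16 Pmp22-F2sN Schwann cells after 24 h compound exposure at 37C.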
% is set by controls: 0 for no effect and ±100 for the full control effect.

Q: Which “activity change, negative = cytotoxicity” value does the source give for Cc1ccc(C)c(N2CCN(C(=O)CCn3c(=O)c4cccn4c4cccnc43)CC2)c1 here?
A: inactive: 2.23%

Q: For COc1ccccc1Nc1nc(-c2ccccc2Cl)c2cc(Br)ccc2n1, which “activity change, negative = cytotoxicity” value is on record?
A: inactive: 5.13%

Q: With CC1=C(C(=O)Nc2ccc(Cl)cc2)C(C(C)C)n2nc(SCc3ccc(Cl)cc3)nc2N1 (stereo not drawn) as the molecule, how does the “activity change, negative = cytotoxicity” value read?
A: inactive: -2.11%

Q: With Cc1cc(C)c2c(CC(=O)Nc3ccc(S(=O)(=O)Nc4ncccn4)cc3)coc2c1 as the molecule, how does the “activity change, negative = cytotoxicity” value read?
A: inactive: -5.55%

Q: Which “activity change, negative = cytotoxicity” value does the source give for COc1ccc(OC)c(CCNC(=O)C2=C(C)C(=O)OC23CCC(C)CC3)c1 (stereo not drawn) here?
A: inactive: -2.59%

Q: With O=C(Cn1nc(C(F)(F)F)c2c1CCC2)Nc1ccc(Cl)cc1 as the molecule, how does the “activity change, negative = cytotoxicity” value read?
A: inactive: 6.7%

Q: Which “activity change, negative = cytotoxicity” value does the source give for COC(=O)c1cc(NC(=O)c2sc3ncn(Cc4cccc(F)c4)c(=O)c3c2C)cc(C(=O)OC)c1 here?
A: inactive: 13.9%

Q: Which “activity change, negative = cytotoxicity” value does the source give for COc1cc(CN(C(=O)c2cccc(C)c2)c2ccccn2)cc(OC)c1OC here?
A: inactive: 2.11%

Q: For Cc1ccc(-n2c(SCC(=O)NCc3ccccc3)nc3c([nH]c4ccccc43)c2=O)cc1, which “activity change, negative = cytotoxicity” value is on record?
A: inactive: 6.46%

Q: With Cc1ccccc1CCNC(=O)C1CCN(c2nc3ccccc3nc2C(F)(F)F)CC1 as the molecule, how does the “activity change, negative = cytotoxicity” value read?
A: inactive: -8.88%

Q: Which “activity change, negative = cytotoxicity” value does the source give for O=C(NCc1ccccc1Cl)c1cc(=O)[nH]c2ccc(S(=O)(=O)N3CCCCC3)cc12 here?
A: inactive: 2.25%

Q: Which “activity change, negative = cytotoxicity” value does the source give for COc1ccccc1NC(=O)CCS(=O)(=O)c1cc2c3c(c1)CCN3C(=O)CC2 here?
A: inactive: 9.42%

Q: Which “activity change, negative = cytotoxicity” value does the source give for COc1ccc(CNC(=O)CSc2n[nH]c(-c3ccc(OC)cc3)n2)cc1 here?
A: inactive: -15.6%

Q: For Cc1ccc(NC(=O)c2cc3c([nH]c2=O)CC(C)(C)CC3=O)c(C)c1, which “activity change, negative = cytotoxicity” value is on record?
A: inactive: 0.563%

Q: With Cc1ccccc1-c1nc(CS(=O)(=O)CC(=O)Nc2cc(Cl)cc(Cl)c2)c(C)o1 as the molecule, how does the “activity change, negative = cytotoxicity” value read?
A: inactive: 22.4%

Q: For CC(C)c1ccc2c(c1)-c1ccccc1S(=O)(=O)N2CC(=O)N1CCCCC1, which “activity change, negative = cytotoxicity” value is on record?
A: inactive: -8.13%

Q: With COc1cc(Cn2c(=O)sc3ccccc32)ccc1OCCC(C)C as the molecule, how does the “activity change, negative = cytotoxicity” value read?
A: inactive: -6.35%

Q: Which “activity change, negative = cytotoxicity” value does the source give for Cc1cc(Cl)ccc1OCC(=O)Nc1c(C(=O)c2ccccc2)oc2ccccc12 here?
A: inactive: 4.62%

Q: Which “activity change, negative = cytotoxicity” value does the source give for O=C(CSc1ncc(-c2ccccc2)[nH]1)Nc1cccc(C(F)(F)F)c1 here?
A: inactive: -2.12%

Q: Which “activity change, negative = cytotoxicity” value does the source give for COc1ccccc1NC(=O)c1c(NC(=O)Cc2ccccc2)sc2c1CCC(C(C)(C)C)C2 (stereo not drawn) here?
A: inactive: 0.465%

Q: For CCc1ccc(CNC(=O)Cn2c(-c3cccs3)cc3cc(F)ccc32)cc1, which “activity change, negative = cytotoxicity” value is on record?
A: inactive: 2.4%

Q: With CCn1nc(C)c(CCN(C)C(=O)Nc2cc(C)cc(C)c2)c1C as the molecule, how does the “activity change, negative = cytotoxicity” value read?
A: inactive: 3.58%

Q: For O=C(Nc1cnc(N2CCC(N3CCCCC3)CC2)c(C(=O)O)c1)c1ccc(Br)cc1, which “activity change, negative = cytotoxicity” value is on record?
A: inactive: 10.4%

Q: Which “activity change, negative = cytotoxicity” value does the source give for Cc1ccc(CSc2nc3ccc(NC(=O)COc4ccc(F)cc4)cc3s2)cc1 here?
A: inactive: 6.54%

Q: For COc1ccccc1NC(=O)Cn1c(=O)n(Cc2ccccc2)c(=O)c2c3c(sc21)CN(C(C)=O)CC3, which “activity change, negative = cytotoxicity” value is on record?
A: inactive: 1.05%

Q: Which “activity change, negative = cytotoxicity” value does the source give for CCn1ccc2c(OCC(=O)NCc3ccc(C)cc3)cccc2c1=O here?
A: inactive: -3.73%

Q: For Cc1cc(C)nc(-n2nc(C)c3c2NC(=O)CC3c2cc(F)ccc2F)n1 (stereo not drawn), which “activity change, negative = cytotoxicity” value is on record?
A: inactive: -10.7%

Q: With COc1ccc(-c2cc(C(C)=O)c(C)n2CCC(=O)Nc2ccc(C(F)(F)F)cc2)cc1 as the molecule, how does the “activity change, negative = cytotoxicity” value read?
A: inactive: -24.3%

Q: For Nc1nonc1C(=O)NCCNCc1ccc(Cl)c(Cl)c1, which “activity change, negative = cytotoxicity” value is on record?
A: inactive: 26.9%

Q: With Cc1ccc(CNC(=O)c2ccc(-c3nc(CS(=O)c4ccccc4)c(C)o3)cc2)cc1 (stereo not drawn) as the molecule, how does the “activity change, negative = cytotoxicity” value read?
A: inactive: 18.2%

Q: For Cc1cccc(-c2nc(CSCC(=O)NCCc3ccc(Cl)cc3)c(C)o2)c1, which “activity change, negative = cytotoxicity” value is on record?
A: inactive: -1.88%

Q: Which “activity change, negative = cytotoxicity” value does the source give for Cc1ccc(-c2nn(CC(=O)NC3CCCC3)c3c2cnc2ccccc23)cc1 here?
A: inactive: 22.5%

Q: For Cc1ccc(C)c(NC(=O)CN2C(=O)c3cccnc3Oc3ccc(C)cc32)c1, which “activity change, negative = cytotoxicity” value is on record?
A: inactive: 2.69%

Q: For Cc1ccc(C)c(NC(=O)c2nn(C)c3c2CS(=O)(=O)c2ccccc2-3)c1, which “activity change, negative = cytotoxicity” value is on record?
A: inactive: 12.8%

Q: With CC(C)(C)C1CCc2c(sc3nnn(CCOc4ccccc4)c(=O)c23)C1 (stereo not drawn) as the molecule, how does the “activity change, negative = cytotoxicity” value read?
A: inactive: 3.76%

Q: Which “activity change, negative = cytotoxicity” value does the source give for COc1cc(/C=C/c2nc(C#N)c(NCCc3ccccc3)o2)cc(OC)c1OC here?
A: inactive: -28.7%

Q: For COc1cc(NC(=O)c2nc3ccccc3nc2N2CCCCC2)cc(OC)c1OC, which “activity change, negative = cytotoxicity” value is on record?
A: inactive: -16.8%

Q: With CCOC(=O)N1CCc2c(sc3c2c(=O)n(CCc2ccccc2)c(=O)n3CC(=O)Nc2cccc(C)c2)C1 as the molecule, how does the “activity change, negative = cytotoxicity” value read?
A: inactive: 1.98%

Q: Which “activity change, negative = cytotoxicity” value does the source give for COCCn1ccc2c(OCC(=O)Nc3ccccc3F)cccc2c1=O here?
A: inactive: 6.82%

Q: Which “activity change, negative = cytotoxicity” value does the source give for CC(C)(C)c1ccc(CN(Cc2ccco2)c2cnc(S(C)(=O)=O)nc2C(=O)Nc2ccc(F)cc2)cc1 here?
A: inactive: 1.73%

Q: With Cc1cc(C)c(NC(=O)Cn2c(=O)nc(-c3ccccc3)c3cc(Cl)ccc32)c(C)c1 as the molecule, how does the “activity change, negative = cytotoxicity” value read?
A: inactive: 3.96%

Q: For COc1cc(NC(=O)N2CCC3(CC2)Nc2cc(F)ccc2-n2cccc23)cc(OC)c1OC, which “activity change, negative = cytotoxicity” value is on record?
A: inactive: -11.6%

Q: Which “activity change, negative = cytotoxicity” value does the source give for COc1ccc(OC)c(C2C(C(=O)N3CCCCC3)=C(C)Nc3nc4ccccc4n32)c1 (stereo not drawn) here?
A: inactive: 10.8%

Q: Which “activity change, negative = cytotoxicity” value does the source give for N#C/C(=C/c1cn(Cc2ccccc2Cl)c2ccccc12)C(=O)Nc1cccc(Cl)c1 here?
A: inactive: -3.18%

Q: With CCc1ccc(-c2nn(CC(=O)Nc3ccccc3C)c3c2cnc2ccc(C)cc23)cc1 as the molecule, how does the “activity change, negative = cytotoxicity” value read?
A: inactive: 0.783%

Q: With Clc1ccc(OCc2nc3ccccc3n2Cc2ccccc2)c(Cl)c1 as the molecule, how does the “activity change, negative = cytotoxicity” value read?
A: inactive: 8.57%

Q: With Cc1cc(=O)n(Cc2cccc(F)c2)c2c1c(C)nn2-c1cccc(F)c1 as the molecule, how does the “activity change, negative = cytotoxicity” value read?
A: inactive: 5.99%

Q: For CCc1cccc(CC)c1-n1nnc2c(sc3nc(C)cc(C)c32)c1=O, which “activity change, negative = cytotoxicity” value is on record?
A: inactive: 7.01%
